In the supplement of paper PMC10126150:
Sequences with one replicate were seen in a single cluster, so their values are uncertain.

Test system: ATP
Experiment: switch fluorescence ratio, 500 uM ATP over buffer (Cy3 cluster intensity, sum of 5 cycles each) (fold (ratio)); higher = stronger signal-on switching upon ATP binding; sequences stand for … in TCGTCGGCAGCGTCAGATGTGTATAAGAGACAGTTTTTTTTTTTTTTTTTTTTTTTTT…TC
Details: aptamer strand: ATP DNA aptamer (quencher-CACCTGGGGGAGTATTGCGGAGGAAGG + anchor), 100 nM annealed; ATP concentration: 500 uM; one replicate
Outline: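 Switching-strand clusters labelled with Cy3 on a modified Illumina MiSeq flow-cell were annealed to 100 nM quencher-labelled ATP aptamer, imaged in selection buffer, and re-imaged after 15 min with 500 uM ATP at 22 °C. This was done over five cycles with NaOH stripping and re-annealing in between. The fluorescence ratio is summed target-cycle over summed buffer-cycle Cy3 intensity per cluster, averaged per switch-domain sequence, excluding clusters outside 100-1000 RFU.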
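Note: ATP exposure 15 min at 22 °C before imaging.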

Sequence | switch fluorescence ratio
TTAAATGCAA | 1.08
AGTCGCCCGG | 1.11
TTTGATTCCT | 1.15
CTGTTGCTTT | 0.991
TAACTGGACA | 1.03
CGGAGTCCTC | 1.04
TTACGGCACA | 1.47
TGAGTCAAGA | 0.995
TCCTTGGCA | 1.6
CCATCGTGCC | 1.01
TTGTTTTTC | 0.988
GGCAAGCCGT | 1
ATCATAGTAG | 1
AAGTCGGCCT | 0.989
TCAAATAATT | 1.04
CTTAGTTGAG | 0.971
ATCATCTACG | 1.02
GTTGCTTATG | 0.957
CCGAGTCAGT | 4.5
CTTTGAGCCG | 0.981
CCCGGCGGAT | 1.06
ATGTTTCTG | 1
CAGATTTTCA | 0.969

Sequence | switch fluorescence ratio
CCTGATTGGG | 0.967
AGTCACTCAG | 1.07
AGGCGCCTAG | 1.02
AATTGCCGTC | 1
TAGACGGAGT | 1.05
GGCCGTATAG | 1.05
GCATCATTAG | 1.03
GGGTTACATC | 0.997
GGTCTATGGA | 0.956
GCCGTACCCA | 0.996
TTAAGCAATA | 1.91
GCGCTTCAAT | 1.03
TTGGTACGAG | 1.03
GAGTATGGG | 1.01
AAAGCGGAAC | 1.21
CTTCAGGCAG | 1
ATAGGTTTCT | 1.06
CAAATCTTGA | 0.968
TCACGCCTCC | 1.22
CCTCCTACGT | 2.94
TATCAGGTGG | 1.06
CTTACGTAGT | 1.04
GGTTCTGA | 1.04

Sequence | switch fluorescence ratio
TCACGAAGAT | 1.03
GCCCCGTCAA | 1.3
TCCGTAACCG | 1.04
TAAGGTTTAA | 0.969
GACCACTTTT | 1.03
GTTTTGGCCA | 0.971
ATAAACTTTG | 1.05
ACTTCAACCT | 1.09
TGATGATTAA | 0.967
GAACTATATG | 0.976
CTGCTTTTGC | 0.984
GCTGCTGTCA | 1.02
CGAGGGCTTC | 0.999
TTACCCATCG | 0.956
AAACGTATGG | 1
GAGGAAGGTG | 1.42
AGGACCCCCA | 1.03
TAAGAGCGTT | 1.01
TATTAATATG | 1.07
TGGTGTTTCT | 0.974
AAGTGTTATG | 1.01
CATCAATCA | 1.01
GTCGTATTCT | 1.01

Sequence | switch fluorescence ratio
CGGAGTGGTC | 1.11
AATAAAATTC | 0.965
TGTCGTAGCT | 1.01
GGGTAATATT | 1.04
CGTAGCGAAG | 1.13
CCCCCGTTGT | 2.1
AGCAGCATTT | 0.992
TCAGAAGTGG | 0.969
ACCCCCAGTA | 1.08
CGCAAATGGA | 1.28
TGAGAAGCGC | 1.41
CATGAGGGTG | 1.11
TTAGGCCCAG | 0.999
TTGCCGTCAG | 1.06
TTAGTGCGAG | 1.02
GATGATCTCA | 0.976
AGACGTCGAA | 1.01
ATCAGTCGCC | 0.995
ATGCCTAACG | 0.993
CAGCTTTAGT | 1.17
TCTATACGCG | 1.08
TAGTTGTTC | 0.959
GTAAGAGGCA | 0.964

Sequence | switch fluorescence ratio
AAATACTGAG | 1.09
TTCTGACGTA | 1.06
TAACGGACAT | 1.02
GCCTAAATCC | 1
AAGGGTCCAA | 1.07
GTAGATGTAC | 1.14
TCACTCTTAT | 1.01
CTTGCAAAGT | 1.04
TATGTCATGC | 1.06
GCTTAGTAGG | 0.944
ACAAATTTGC | 0.958
GAGCAGCCGA | 0.975
AAAGTTGTGG | 1
AGCGATTACT | 1.69
CAAACGGGAT | 1.09
TTTACCTTAC | 2.19
AGGCTCCGGA | 1.07
ATTCGTCTTG | 1.02
TCTATATTTC | 0.965
AATGGGGGC | 0.977
AGAATTGACT | 0.972
AAAATGGCT | 1.05
CCCCAGATGA | 2.16

Sequence | switch fluorescence ratio
ACATGTTATC | 0.991
AACTGCCGG | 0.955
TGCGATCTTC | 1.02
CTTATTTCTC | 0.96
GGGGCGCTAC | 1.45
CGGTAAACCA | 0.99
TGGTTCCATC | 0.992
TTTTCACGCT | 0.976
GGGGAGCTGA | 1.02
CGCCGGCTGG | 1.05
GGTCGGTAAC | 0.991
TGATTTAGT | 1.02
TCTAATGGCA | 1.01
CGCGTCTTGA | 1
ACAGGCGTT | 1.01
TATGACCATG | 0.991
TTTACCTTTT | 1.03
CTCTTATATT | 0.961
TGACTCGAAG | 1.02
TATCTAGCTG | 0.943
GGCGGCCAGC | 1.02
TTGCGCCAGG | 1.27
AGTGGGCGCC | 0.978

Sequence | switch fluorescence ratio
GAGATGGCTA | 0.965
CTTCCCAGAG | 1.39
AGATGAAAGG | 1.03
GTGTGCTGCG | 1
CACAATGACT | 1.15
GTTATGCCTA | 0.931
ATAGAGTTGA | 1.02
TTGATCTGGG | 0.98
CAACTTCAGA | 1
AAAGTTCTG | 0.978
TGCTGGAGTA | 1
CCAAGGTATG | 1.04
GCAAGAACAT | 1.07
CCAAAATCAA | 1.02
ATCTCAACG | 1.01
CTGTGGCGGT | 1
TTTCGCTATT | 1.02
CTTTTAAGTT | 0.973
CAGTGGCTTT | 1.03
